Test results taken from PubChem BioAssay AID602293 (National Center for Advancing Translational Sciences (NCATS), 2012).
The campaign covered roughly 1,300 compounds. About 30 (2%) were called active. Roughly 10% stayed inconclusive and do not appear here. The call rests on the fitted dose curve; in most records, active means well fitted inhibition curve with a large enough effect; inconclusive means small, poorly fitted or top-dose-only effect; inactive means flat fitted curve, though single readings scatter. The list shows a part of the results.

Assay: qHTS for antagonists of the Thyroid Stimulation Hormone Receptor: Hit Validation in HTRF Activity in a Luteinizing Hormone Receptor Cell Line
Conditions: LHR-expressing cell line, cAMP HTRF, antagonist mode; series mostly up to 58 µM; activity change, negative = inhibition: at the top concentration
Method in brief: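 Counter-screen on LH receptor–transfected HEK 293 cells: 30 min compound exposure at room temperature in medium containing 100 uM RO 20-1724 phosphodiesterase inhibitor. Cellular cAMP read by competitive HTRF after lysis with d2-cAMP and anti-cAMP antibody (330 nm excitation; 615/660 nm emission).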
On the % scale 0 is the no-effect control and ±100 the full control effect.

Activity change, negative = inhibition, inactive:
Cc1cccc(C)c1OCCCn1ccnc1 -0.665%
N#Cc1nc(-c2ccccc2)oc1N1CCN(C(=O)c2ccco2)CC1 -0.0764%
CC(C)Cc1csc(NC(=O)c2ccc(Br)cc2)c1C(=O)O 0.206%
Cn1c2c(c(=O)n(C)c1=O)C(C(F)(F)F)(C(F)(F)F)N=C(c1ccc(Cl)cc1)N2 -0.364%
O=C(Nc1nc(-c2ccccc2)cs1)c1ccccc1NS(=O)(=O)c1ccc(F)cc1 -4.26%
CCOc1cc(S(=O)(=O)n2cnc(C)c2)ccc1Cl -0.117%
COC(CNC(=O)c1cn(C)c2ccc(S(=O)(=O)N3CCOCC3)cc2c1=O)OC -1.26%
COc1ccc2ccccc2c1/C=N/NC(=O)c1nnn(-c2nonc2N)c1C(C)C -2.14%
COC(=O)C1C(=O)NC(SC)=C(C#N)C1c1ccccc1 (stereo not given) 2.08%
CCOC(=O)N1CCN(C(=O)c2ccc(NS(=O)(=O)c3ccc(C)cc3)cc2)CC1 -2.84%
CCOc1ccc(-n2c(SCC(=O)Nc3cc(C)on3)nc3c(c2=O)SCC3)cc1 1.17%
COc1cc(NC(=O)C(C)C)ccc1NC(=O)c1ccco1 -1.72%
COc1cccc(/C=N/NC(=O)C(=O)N2CCCC2)c1O 2.1%
Cc1onc(-c2ccccc2Cl)c1C(=O)NC(=S)Nc1ccc(C(C)C)cc1 -0.899%
O=S(=O)(C/C(=C/CO)S(=O)(=O)c1ccccc1)c1ccccc1 -0.386%
O=C(Nc1cccc(Cl)c1)Nc1ccc(Br)cc1F -5.11%
C(=N\Nc1nc2ccccc2[nH]1)/c1ccncc1 1.9%
O=C1C=C(c2ccc(Cl)c(C(F)(F)F)c2)C[C@@H](c2ccc(F)cc2)C1 -3.14%
c1ccc2c(CSc3ncnc4nc[nH]c34)cccc2c1 1.84%
O=C(COC(=O)c1cc(S(=O)(=O)N2CCOCC2)c(Cl)cc1Cl)c1ccc[nH]1 -1.62%
COc1ccc(-n2nc(C(=O)NCC(=O)NCCCN3CCN(C)CC3)c3ccccc3c2=O)cc1 2.91%
COc1ccc(-c2nnc(CSc3nc4ccccc4c(=O)n3CC3CCCO3)o2)cc1OC (stereo not given) 2.69%
COc1ccc(-c2ccc(SCc3ccccn3)nn2)cc1OC 2.61%
Cc1sc2ncnc(N3CCN(CCOc4ccc(Cl)cc4)CC3)c2c1C -1.63%
CCOC(=O)C1CCCN(S(=O)(=O)c2cnc(Cl)c(Br)c2)C1 (stereo not given) -0.394%
O=[N+]([O-])c1ccc(N2CCN(C(=S)NCc3ccc(Cl)cc3)CC2)cc1 -0.0341%
O=c1[nH]c(=O)c2nnc(N/N=C/c3ccccc3F)nc2[nH]1 1.97%
Cc1ccc(S(=O)(=O)/N=C2\C=C(Nc3cccc(C(=O)O)c3)C(=O)c3ccccc32)cc1 1.18%
COc1cc(NS(=O)(=O)c2ccc(C)cc2C)cc(OC)c1OC -3.91%
O=C(Nc1ccc(N=Nc2ccccc2)cc1)c1ccccc1Cl -3.28%
O=C(/C=C/c1ccco1)Nc1ccc(Oc2ccc(Cl)cc2)cc1 -4.15%
CS(=O)(=O)N(CC(=O)N1CCOCC1)c1cccc(F)c1 0.399%
O=C(NCc1cccnc1)c1nc(-c2ccccc2)n(-c2ccccc2)n1 0.968%
COc1ccc(CN(C)C(=O)COC(=O)c2ccc(-c3ccccc3)cc2)c(OC)c1OC -1.51%
CS(=O)(=O)c1ccc(C(=O)OCC(=O)NC(=O)C2CCCCC2)cc1[N+](=O)[O-] -0.0335%
COc1ccc(NS(=O)(=O)c2ccc(N/N=C(\C)c3ccncc3)c([N+](=O)[O-])c2)cc1 -6.17%
CCOc1ccnc2c1c(=O)n(Cc1cc(OC)cc(OC)c1)c(=O)n2C 0.92%
O=C(COc1ccccc1/C=C1\SC(=S)NC1=O)Nc1ccc(F)cc1 0.549%
O=C(COCc1cc(-c2cccs2)on1)NC1CCCCC1 1.06%
CCCn1c(COc2ccccc2OC)nc2ccccc21 2.43%
O=S(=O)(Nc1cccc(-c2ccc(N3CCCCCC3)nn2)c1)c1ccc(F)cc1 1.26%
O=C(NCCCN1CCOCC1)c1ccc2c(c1)N(Cc1ccc(Cl)cc1)C(=O)c1ccccc1S2=O (stereo not given) -1%
CCOc1ccccc1-n1c(=S)sc2c(=O)n(-c3ccc(F)cc3)c(SCC(=O)O)nc21 2.46%
O=C(CN1C(=O)c2ccccc2S1(=O)=O)NCCSCc1cccc(Cl)c1 0.136%
O=C(c1cccc(Cl)c1)N1CCN(Cc2ccc3c(c2)OCO3)CC1 -1.45%
CSCc1cc(N2CCOCC2)nc(SCc2ccc(Cl)cc2Cl)n1 -2.04%
Cc1sc2ncn(CC(=O)NCCCC(=O)NCc3ccc(F)cc3)c(=O)c2c1C 2.32%
Cc1ccc(Oc2cc(NC(=O)CCCn3nc([N+](=O)[O-])cc3C)cc([N+](=O)[O-])c2)cc1 -1.1%
CCCc1nnc(NC(=O)c2nc(S(=O)(=O)Cc3ccc(C)cc3)ncc2Cl)s1 -2.21%
N#Cc1c(C(F)(F)F)cc(-c2ccc(Cl)cc2)[nH]c1=O -1.6%
COc1ccc(S(=O)(=O)n2cnc3ccccc32)c(C)c1 0.203%
N/C(=N\OC(=O)Nc1ccccc1)c1cccc(C(F)(F)F)c1 -2.16%
COc1ccc(NS(=O)(=O)c2cc(-c3cnc(C4CC4)o3)ccc2C)cc1 -3.75%
O=C1NC(=S)N(C(=O)c2ccc(F)cc2)/C1=C/c1ccccc1 -0.482%
COc1cc2sc3ccc(-c4ccc(CN5CCOCC5)cc4)cc3c(=O)c2cc1OC -5.62%
COc1ccc(C(C(=O)NC(C)(C)C)N(CCc2ccccc2)C(=O)CCC(=O)Nc2cc(C)on2)cc1 (stereo not given) -0.384%
COc1cc(/C=N/Nc2ccc(C(=O)O)cc2)ccc1O -2.75%
O=C(CSc1nnc(-c2ccncc2)n1Cc1ccco1)Nc1nc(-c2ccccc2)cs1 -5.06%
Cc1ccccc1NC(=O)CCc1c(C)nn(-c2ccc(N3CCOCC3)nn2)c1C 2.96%
CC(C)Oc1ccc(C(=O)Nc2ccc(Cl)c(S(=O)(=O)Nc3ccc(Cl)cc3)c2)cc1 -1.11%
O=C(Nc1nc(-c2ccc(F)cc2)cs1)C1CCN(C(=O)c2ccc(F)cc2)CC1 -5.39%
O=[N+]([O-])c1cc(S(=O)(=O)C(F)(F)F)ccc1Sc1nc2ccccc2s1 0.782%
O=C(Nc1ccncc1)c1cccc(S(=O)(=O)N2CCc3ccccc32)c1 -0.492%
Nc1nc(SCC(=O)Nc2ccc([N+](=O)[O-])cc2)[nH]c(=O)c1NC(=O)c1ccc(Br)cc1 2.47%
Cc1cccc(OC2CCN(Cc3nc(CC4CC4)no3)CC2)c1 1.84%
